About 110 (3.4%) of roughly 3,200 compounds showed an effect of 50% or more. The list shows a part of the results.

In the assay the test system is T1, V. cholerae SAD30.
T1 construct: SAD30
Further details: species or system S. aureus MSSA476 (TSB) or V. cholerae SAD30 (LB); 384-well bacterial growth screen at 25 uM, OD600 relative to DMSO control. The conditions noted are these: relative growth, OD600, LB; 25 µM; inhibitor.
As to `O=C(CCl)Nc1ccc(S(=O)(=O)c2ccc(F)cc2)cc1` [6-O14, 2-chloro-N-[4-(4-fluorobenzenesulfonyl)phenyl]acetamide], the “% of control remaining” value is 92.9756%.
Then `C=CC(=O)N(C)CC(=O)N1CCCC(CC(N)=O)CC1` (stereo not shown) [3-C20, N-{2-[4-(carbamoylmethyl)azepan-1-yl]-2-oxoethyl}-N-methylprop-2-enamide], with 112.909%.
For `O=C(CCl)NCc1ccc(C(=O)N2CCCC2)cc1` [6-G04, 2-chloro-N-{[4-(pyrrolidine-1-carbonyl)phenyl]methyl}acetamide], the “% of control remaining” value was found to be 99.3459%.
For `C=CC(=O)N1CCCCC1c1noc(C2CC2)n1` (stereo not shown) [3-K12, 1-[2-(5-cyclopropyl-1,2,4-oxadiazol-3-yl)piperidin-1-yl]prop-2-en-1-one], the “% of control remaining” value was found to be 86.4437%.
Then `Cn1cc(C=C(C#N)C(=O)NCc2ccco2)cn1` [8-L06, 2-cyano-N-[(furan-2-yl)methyl]-3-(1-methyl-1H-pyrazol-4-yl)prop-2-enamide], with 71.584%; and `CC(Cl)C(=O)N1CCNC(=O)C1Cc1nc2ccccc2o1` (stereo not shown) [6-P03, 3-[(1,3-benzoxazol-2-yl)methyl]-4-(2-chloropropanoyl)piperazin-2-one], with 106.626%; and `O=C(CCl)N1N=C(C=Cc2ccco2)CC1c1ccco1` (stereo not shown) [4-M22, 2-chloro-1-[5-(furan-2-yl)-3-[2-(furan-2-yl)ethenyl]-4,5-dihydro-1H-pyrazol-1-yl]ethan-1-one], with 110.071%.
In the case of `N#CC(=Cc1cc([N+](=O)[O-])ccc1Cl)C(N)=O` [8-F21, 3-(2-chloro-5-nitrophenyl)-2-cyanoprop-2-enamide], the “% of control remaining” value amounted to 76.0707%.
On to `O=C(CCl)N(Cc1ccccc1)CC(F)(F)F` [4-B20, N-benzyl-2-chloro-N-(2,2,2-trifluoroethyl)acetamide], for which the “% of control remaining” value was 107.138%.
Consider `C=CC(=O)Nc1ccc(C(=O)N2CCCCC2CS(C)(=O)=O)cc1` (stereo not shown) [2-N18, N-{4-[2-(methanesulfonylmethyl)piperidine-1-carbonyl]phenyl}prop-2-enamide], for which the “% of control remaining” value was found to be 91.1223%.
As for `Cc1ncccc1OCC1CCCN1C(=O)C(C)Cl` (stereo not shown) [7-C18, 2-chloro-1-(2-{[(2-methylpyridin-3-yl)oxy]methyl}pyrrolidin-1-yl)propan-1-one], the “% of control remaining” value is reported as 75.0702%.
Consider `C=CC(=O)Nc1cc(C(=O)O)ccc1O` [1-A12, 4-hydroxy-3-(prop-2-enamido)benzoic acid], for which the “% of control remaining” value was 88.4903%.
In the case of `N#CC(=Cc1ccc(C#N)cc1)C(=O)Nc1cccc(Cl)c1Cl` [8-J05, 2-cyano-3-(4-cyanophenyl)-N-(2,3-dichlorophenyl)prop-2-enamide], the “% of control remaining” value turned out to be 72.9436%.
Then `C=CC(=O)N(Cc1c(C)nn(CC)c1C)c1ccc2c(c1)COC2` [2-G13, N-(1,3-dihydro-2-benzofuran-5-yl)-N-[(1-ethyl-3,5-dimethyl-1H-pyrazol-4-yl)methyl]prop-2-enamide], with 73.058%.
Then `C=CC(=O)N(C)Cc1cn(C)nc1C(C)C` [3-F15, N-methyl-N-{[1-methyl-3-(propan-2-yl)-1H-pyrazol-4-yl]methyl}prop-2-enamide], with 93.3248%; and `N#CC(=Cc1ccc(C#N)cc1)C(=O)N1CCCC1` [9-P21, 4-[2-cyano-2-(pyrrolidine-1-carbonyl)eth-1-en-1-yl]benzonitrile], with 93.8817%.
In the case of `C=CC(=O)NCc1coc(-c2cccs2)n1` [1-C07, N-{[2-(thiophen-2-yl)-1,3-oxazol-4-yl]methyl}prop-2-enamide] it was 94.1704%; in that of `Cc1ccc(NC(=O)C(C#N)=Cc2ccc(C)s2)c(C)c1` [8-D09, 2-cyano-N-(2,4-dimethylphenyl)-3-(5-methylthiophen-2-yl)prop-2-enamide], 79.1978%; in that of `CC(c1cccs1)N(C)C(=O)CCl` (stereo not shown) [6-M21, 2-chloro-N-methyl-N-[1-(thiophen-2-yl)ethyl]acetamide], 98.1325%.
Take `Cc1cccc2nc(C3CCN(C(=O)C(C)Cl)CC3)oc12` (stereo not shown) [7-M12, 2-chloro-1-[4-(7-methyl-1,3-benzoxazol-2-yl)piperidin-1-yl]propan-1-one]: the “% of control remaining” value is 63.8361%.
On to `O=C(CCl)N1CCC(OCc2ccccc2)CC1` [4-H19, 1-[4-(benzyloxy)piperidin-1-yl]-2-chloroethan-1-one], for which the “% of control remaining” value was determined as 95.0615%.
Consider `CC(Oc1cccc(F)c1F)C(=O)N1CCN(C(=O)CCl)CC1` (stereo not shown) [5-H03, 1-[4-(2-chloroacetyl)piperazin-1-yl]-2-(2,3-difluorophenoxy)propan-1-one], for which the “% of control remaining” value was found to be 112.136%.
Take `COCC(C)NC(=O)C(C#N)=Cc1ccc(F)c(C)c1` (stereo not shown) [9-H09, 2-cyano-3-(4-fluoro-3-methylphenyl)-N-(1-methoxypropan-2-yl)prop-2-enamide]: the “% of control remaining” value is 91.2984%.
As for `Cc1ccc(-n2c(C)cc(C(=O)CCl)c2C)cc1C` [10-B14, 2-chloro-1-[1-(3,4-dimethylphenyl)-2,5-dimethyl-1H-pyrrol-3-yl]ethan-1-one], the “% of control remaining” value was determined as 97.5648%.
Then `C=CC(=O)NCCC(=O)N1CCCC1c1cc(C)on1` (stereo not shown) [2-C12, N-{3-[2-(5-methyl-1,2-oxazol-3-yl)pyrrolidin-1-yl]-3-oxopropyl}prop-2-enamide], with 89.1151%; and `C=CC(=O)N1CCC(n2ccc(C)n2)CC1` [2-A21, 1-[4-(3-methyl-1H-pyrazol-1-yl)piperidin-1-yl]prop-2-en-1-one], with 103.165%.
Take `C=CC(=O)NCc1conc1C1CCC1` [1-N06, N-[(3-cyclobutyl-1,2-oxazol-4-yl)methyl]prop-2-enamide]: the “% of control remaining” value was determined as 107.704%.
In the case of `CC(Cl)C(=O)N(C)Cc1cn(C)nc1C(F)(F)F` (stereo not shown) [7-M04, 2-chloro-N-methyl-N-{[1-methyl-3-(trifluoromethyl)-1H-pyrazol-4-yl]methyl}propanamide] it was 86.4365%; in that of `CC(Cl)C(=O)NCc1ccco1` (stereo not shown) [5-B09, 2-chloro-N-[(furan-2-yl)methyl]propanamide], 92.298%; in that of `O=C(CCl)Nc1cc(C(=O)O)cc(C(=O)O)c1` [4-B04, 5-(2-chloroacetamido)benzene-1,3-dicarboxylic acid], 102.998%.
Turning to `C=CC(=O)NCc1ncccc1S(C)(=O)=O` [2-D21, N-[(3-methanesulfonylpyridin-2-yl)methyl]prop-2-enamide], the “% of control remaining” value was determined as 102.084%.
For `CCN(CC)S(=O)(=O)c1cccc(NC(=O)CCl)c1` [4-M07, 2-chloro-N-[3-(diethylsulfamoyl)phenyl]acetamide], the “% of control remaining” value was 105.931%.
Then `C=CC(=O)N1CCC(n2cc(C(N)=O)nn2)C1` (stereo not shown) [1-C18, 1-[1-(prop-2-enoyl)pyrrolidin-3-yl]-1H-1,2,3-triazole-4-carboxamide], with 87.145%.
On to `COc1ccc(N(C)C(=O)C(C)Cl)cc1Cl` (stereo not shown) [7-C14, 2-chloro-N-(3-chloro-4-methoxyphenyl)-N-methylpropanamide], for which the “% of control remaining” value was 74.0129%.
Then `CC(Cl)C(=O)Nc1ccccc1C(N)=O` (stereo not shown) [5-G05, 2-(2-chloropropanamido)benzamide], with 106.42%; and `COc1ccc(CNC(=O)C(C)Cl)cc1` (stereo not shown) [5-J18, 2-chloro-N-[(4-methoxyphenyl)methyl]propanamide], with 97.1735%; and `Cc1ccc(C)c(NC(=O)CN(C)C(=O)CCl)c1` [6-N04, 2-chloro-N-{[(2,5-dimethylphenyl)carbamoyl]methyl}-N-methylacetamide], with 95.7058%.
In the case of `C=CCNC(=O)C(C#N)=CC=Cc1ccccc1` [9-J08, 2-cyano-5-phenyl-N-(prop-2-en-1-yl)penta-2,4-dienamide] it was 79.4697%; in that of `C=CC(=O)NCCn1cc(Cl)c(C(F)(F)F)n1` [2-F03, N-{2-[4-chloro-3-(trifluoromethyl)-1H-pyrazol-1-yl]ethyl}prop-2-enamide], 108.106%.
In the case of `O=C(CCl)N1CCOc2c1cccc2C(F)(F)F` [5-G08, 2-chloro-1-[8-(trifluoromethyl)-3,4-dihydro-2H-1,4-benzoxazin-4-yl]ethan-1-one], the “% of control remaining” value stood at 76.6628%.
Regarding `CCN(CC)S(=O)(=O)c1ccc(NC(=O)CCl)cc1` [4-K07, 2-chloro-N-[4-(diethylsulfamoyl)phenyl]acetamide], the “% of control remaining” value came out at 100.237%.
Regarding `Cn1cc(CN(C(=O)CCl)c2ccc(F)cc2)cn1` [6-D08, 2-chloro-N-(4-fluorophenyl)-N-[(1-methyl-1H-pyrazol-4-yl)methyl]acetamide], the “% of control remaining” value came out at 84.6336%.
Then `C=CC(=O)N1CCC(C(=O)NCc2ccoc2C)CC1` [1-E14, N-[(2-methylfuran-3-yl)methyl]-1-(prop-2-enoyl)piperidine-4-carboxamide], with 89.0882%.
As for `O=C(CCl)NCc1cc(O)ccc1Cl` [7-J21, 2-chloro-N-[(2-chloro-5-hydroxyphenyl)methyl]acetamide], the “% of control remaining” value turned out to be 94.7629%.
Consider `O=C(CCl)N1N=C(c2ccsc2)CC1c1cccc(F)c1` (stereo not shown) [4-C22, 2-chloro-1-[5-(3-fluorophenyl)-3-(thiophen-3-yl)-4,5-dihydro-1H-pyrazol-1-yl]ethan-1-one], for which the “% of control remaining” value is reported as 124.563%.
Then `O=C(CCl)N(CC1=CCSC1)c1ccccc1` [4-F11, 2-chloro-N-[(2,5-dihydrothiophen-3-yl)methyl]-N-phenylacetamide], with 104.205%.

The record behind these values is article PMC11995724, “Antibiotic target discovery by integrated phenotypic and activity-based profiling of electrophilic fragments” (Cell chemical biology, 2025).
